For assay [1], the target named is Nup358 (human (endogenous in HCT116)) (UniProt P49792). The experiment in a line: co-IP; endogenous proteins from cellular extract of HCT116 cells; immunoprecipitation with anti-GANP antibody, mAb414, anti-Nup358 antibody or sheep IgG; blotted for GANP and mAb414.
The target of assay [2] is T1, NXF1 (human (endogenous in HCT116)) (UniProt Q9UBU9).
T1 sequence: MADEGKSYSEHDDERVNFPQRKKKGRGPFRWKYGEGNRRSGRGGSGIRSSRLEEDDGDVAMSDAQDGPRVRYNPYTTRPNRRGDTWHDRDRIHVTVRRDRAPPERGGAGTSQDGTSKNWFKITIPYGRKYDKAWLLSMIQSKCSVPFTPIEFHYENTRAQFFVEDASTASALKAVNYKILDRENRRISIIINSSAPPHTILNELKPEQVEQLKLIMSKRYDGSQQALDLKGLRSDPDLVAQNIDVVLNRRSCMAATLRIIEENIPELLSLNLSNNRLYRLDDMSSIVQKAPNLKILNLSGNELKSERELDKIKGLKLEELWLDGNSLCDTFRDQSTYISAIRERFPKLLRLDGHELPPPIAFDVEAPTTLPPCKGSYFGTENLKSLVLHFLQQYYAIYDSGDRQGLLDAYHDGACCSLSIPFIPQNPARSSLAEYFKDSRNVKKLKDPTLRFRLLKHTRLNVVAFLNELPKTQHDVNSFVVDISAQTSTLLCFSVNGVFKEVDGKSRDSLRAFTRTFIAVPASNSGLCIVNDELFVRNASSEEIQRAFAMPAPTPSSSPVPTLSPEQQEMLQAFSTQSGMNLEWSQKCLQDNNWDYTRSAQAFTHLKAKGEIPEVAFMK
Nature of the assay: co-IP; endogenous proteins from nuclear extracts of HCT116 cells; anti-GANP immunoprecipitation in the presence of RNase A, anti-NXF1 immunoprecipitation; immunoblot for GANP and NXF1.

By UniProt entry, the sequences of proteins in these tests, tags left out.
UniProt P49792: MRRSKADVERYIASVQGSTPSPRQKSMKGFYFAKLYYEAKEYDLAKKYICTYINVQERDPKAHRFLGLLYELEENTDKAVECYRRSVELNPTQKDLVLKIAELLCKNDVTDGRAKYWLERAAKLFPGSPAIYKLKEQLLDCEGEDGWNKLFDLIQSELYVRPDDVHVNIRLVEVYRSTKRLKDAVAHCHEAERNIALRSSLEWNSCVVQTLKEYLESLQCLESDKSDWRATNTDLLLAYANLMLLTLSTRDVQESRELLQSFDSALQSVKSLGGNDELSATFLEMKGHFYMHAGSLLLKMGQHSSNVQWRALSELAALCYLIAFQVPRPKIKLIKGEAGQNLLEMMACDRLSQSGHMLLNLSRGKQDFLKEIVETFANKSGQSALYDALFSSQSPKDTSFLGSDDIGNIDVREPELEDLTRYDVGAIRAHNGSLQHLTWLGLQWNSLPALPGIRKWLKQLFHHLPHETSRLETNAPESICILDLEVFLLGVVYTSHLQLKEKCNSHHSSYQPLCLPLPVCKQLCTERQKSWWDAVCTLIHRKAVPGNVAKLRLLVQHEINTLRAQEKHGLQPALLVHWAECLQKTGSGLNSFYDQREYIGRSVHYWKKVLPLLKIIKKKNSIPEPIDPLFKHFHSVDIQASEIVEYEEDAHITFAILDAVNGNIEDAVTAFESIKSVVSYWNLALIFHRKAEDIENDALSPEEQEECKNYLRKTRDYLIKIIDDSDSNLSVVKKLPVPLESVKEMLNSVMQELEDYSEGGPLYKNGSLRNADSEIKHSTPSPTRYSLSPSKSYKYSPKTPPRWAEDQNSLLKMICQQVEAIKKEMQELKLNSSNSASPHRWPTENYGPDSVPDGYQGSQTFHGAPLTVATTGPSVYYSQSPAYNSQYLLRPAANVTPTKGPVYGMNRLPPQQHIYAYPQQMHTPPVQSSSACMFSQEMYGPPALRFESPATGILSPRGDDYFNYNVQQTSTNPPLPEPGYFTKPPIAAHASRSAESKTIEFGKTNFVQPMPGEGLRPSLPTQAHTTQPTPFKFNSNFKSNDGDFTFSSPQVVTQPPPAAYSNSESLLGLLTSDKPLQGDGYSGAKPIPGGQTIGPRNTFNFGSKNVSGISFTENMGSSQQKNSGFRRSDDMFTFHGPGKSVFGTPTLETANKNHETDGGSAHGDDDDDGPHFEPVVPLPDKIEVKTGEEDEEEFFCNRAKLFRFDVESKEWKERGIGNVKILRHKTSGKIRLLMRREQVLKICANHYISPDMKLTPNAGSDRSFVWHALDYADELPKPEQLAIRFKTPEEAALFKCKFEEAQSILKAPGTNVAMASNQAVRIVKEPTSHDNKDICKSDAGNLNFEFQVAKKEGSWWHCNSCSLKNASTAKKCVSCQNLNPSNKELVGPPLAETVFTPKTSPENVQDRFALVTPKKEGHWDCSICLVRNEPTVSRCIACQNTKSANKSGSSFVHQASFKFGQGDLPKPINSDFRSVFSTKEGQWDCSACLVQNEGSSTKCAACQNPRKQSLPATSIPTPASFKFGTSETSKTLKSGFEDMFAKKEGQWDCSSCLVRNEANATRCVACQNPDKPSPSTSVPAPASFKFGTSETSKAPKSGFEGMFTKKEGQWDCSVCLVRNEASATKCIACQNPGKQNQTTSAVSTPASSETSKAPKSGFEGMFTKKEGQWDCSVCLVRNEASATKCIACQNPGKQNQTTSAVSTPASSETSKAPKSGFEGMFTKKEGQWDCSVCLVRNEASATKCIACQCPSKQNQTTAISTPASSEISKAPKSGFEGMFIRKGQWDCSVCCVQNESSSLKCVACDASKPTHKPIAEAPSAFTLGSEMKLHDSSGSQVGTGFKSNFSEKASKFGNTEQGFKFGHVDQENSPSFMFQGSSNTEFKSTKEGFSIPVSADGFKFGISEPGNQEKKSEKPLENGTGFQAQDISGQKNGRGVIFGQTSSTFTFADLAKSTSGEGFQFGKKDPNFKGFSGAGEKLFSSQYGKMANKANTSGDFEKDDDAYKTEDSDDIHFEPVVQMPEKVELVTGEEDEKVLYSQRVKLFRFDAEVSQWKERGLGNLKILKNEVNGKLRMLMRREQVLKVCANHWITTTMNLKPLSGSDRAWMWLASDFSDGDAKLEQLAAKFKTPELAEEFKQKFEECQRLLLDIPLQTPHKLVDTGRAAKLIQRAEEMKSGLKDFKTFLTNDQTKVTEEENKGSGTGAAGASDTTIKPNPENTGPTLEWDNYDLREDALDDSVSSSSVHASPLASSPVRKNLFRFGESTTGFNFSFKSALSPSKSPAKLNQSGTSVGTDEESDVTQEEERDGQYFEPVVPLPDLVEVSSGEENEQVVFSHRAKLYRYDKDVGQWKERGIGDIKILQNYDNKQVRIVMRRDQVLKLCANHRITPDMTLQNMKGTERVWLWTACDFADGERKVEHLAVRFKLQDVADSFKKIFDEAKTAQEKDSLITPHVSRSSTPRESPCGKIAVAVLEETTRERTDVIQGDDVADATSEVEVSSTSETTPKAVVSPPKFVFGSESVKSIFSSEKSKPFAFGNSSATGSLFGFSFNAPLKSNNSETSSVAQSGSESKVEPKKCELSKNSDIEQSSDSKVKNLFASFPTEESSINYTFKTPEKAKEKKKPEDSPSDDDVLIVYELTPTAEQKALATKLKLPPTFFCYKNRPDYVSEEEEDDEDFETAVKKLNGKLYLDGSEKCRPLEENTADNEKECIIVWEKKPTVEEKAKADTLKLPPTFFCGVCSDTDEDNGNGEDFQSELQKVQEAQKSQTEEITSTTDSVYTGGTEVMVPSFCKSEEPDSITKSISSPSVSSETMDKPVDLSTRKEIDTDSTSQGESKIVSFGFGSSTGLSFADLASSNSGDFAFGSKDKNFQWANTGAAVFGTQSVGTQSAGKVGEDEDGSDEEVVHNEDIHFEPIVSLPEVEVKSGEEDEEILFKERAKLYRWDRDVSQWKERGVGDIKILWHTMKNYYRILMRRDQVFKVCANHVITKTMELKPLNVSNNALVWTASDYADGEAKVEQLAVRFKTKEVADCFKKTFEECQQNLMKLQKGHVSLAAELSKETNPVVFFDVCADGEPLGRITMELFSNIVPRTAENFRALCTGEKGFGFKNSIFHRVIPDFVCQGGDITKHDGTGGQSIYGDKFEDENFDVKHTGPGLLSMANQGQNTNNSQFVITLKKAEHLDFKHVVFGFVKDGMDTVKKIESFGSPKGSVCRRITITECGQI
UniProt P37198: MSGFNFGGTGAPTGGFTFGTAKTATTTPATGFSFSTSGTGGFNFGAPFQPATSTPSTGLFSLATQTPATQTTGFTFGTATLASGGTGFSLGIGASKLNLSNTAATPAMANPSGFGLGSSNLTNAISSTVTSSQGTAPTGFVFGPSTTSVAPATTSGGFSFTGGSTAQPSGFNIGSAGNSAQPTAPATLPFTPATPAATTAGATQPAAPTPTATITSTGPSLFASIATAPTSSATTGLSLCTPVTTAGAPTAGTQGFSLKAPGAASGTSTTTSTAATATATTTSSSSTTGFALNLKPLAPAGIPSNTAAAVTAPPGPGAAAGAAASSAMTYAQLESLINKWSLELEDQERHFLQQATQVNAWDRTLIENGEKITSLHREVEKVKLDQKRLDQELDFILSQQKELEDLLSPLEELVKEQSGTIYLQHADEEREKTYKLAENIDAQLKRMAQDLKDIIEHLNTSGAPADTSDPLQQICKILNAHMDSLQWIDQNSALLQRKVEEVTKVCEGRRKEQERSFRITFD
UniProt P49790: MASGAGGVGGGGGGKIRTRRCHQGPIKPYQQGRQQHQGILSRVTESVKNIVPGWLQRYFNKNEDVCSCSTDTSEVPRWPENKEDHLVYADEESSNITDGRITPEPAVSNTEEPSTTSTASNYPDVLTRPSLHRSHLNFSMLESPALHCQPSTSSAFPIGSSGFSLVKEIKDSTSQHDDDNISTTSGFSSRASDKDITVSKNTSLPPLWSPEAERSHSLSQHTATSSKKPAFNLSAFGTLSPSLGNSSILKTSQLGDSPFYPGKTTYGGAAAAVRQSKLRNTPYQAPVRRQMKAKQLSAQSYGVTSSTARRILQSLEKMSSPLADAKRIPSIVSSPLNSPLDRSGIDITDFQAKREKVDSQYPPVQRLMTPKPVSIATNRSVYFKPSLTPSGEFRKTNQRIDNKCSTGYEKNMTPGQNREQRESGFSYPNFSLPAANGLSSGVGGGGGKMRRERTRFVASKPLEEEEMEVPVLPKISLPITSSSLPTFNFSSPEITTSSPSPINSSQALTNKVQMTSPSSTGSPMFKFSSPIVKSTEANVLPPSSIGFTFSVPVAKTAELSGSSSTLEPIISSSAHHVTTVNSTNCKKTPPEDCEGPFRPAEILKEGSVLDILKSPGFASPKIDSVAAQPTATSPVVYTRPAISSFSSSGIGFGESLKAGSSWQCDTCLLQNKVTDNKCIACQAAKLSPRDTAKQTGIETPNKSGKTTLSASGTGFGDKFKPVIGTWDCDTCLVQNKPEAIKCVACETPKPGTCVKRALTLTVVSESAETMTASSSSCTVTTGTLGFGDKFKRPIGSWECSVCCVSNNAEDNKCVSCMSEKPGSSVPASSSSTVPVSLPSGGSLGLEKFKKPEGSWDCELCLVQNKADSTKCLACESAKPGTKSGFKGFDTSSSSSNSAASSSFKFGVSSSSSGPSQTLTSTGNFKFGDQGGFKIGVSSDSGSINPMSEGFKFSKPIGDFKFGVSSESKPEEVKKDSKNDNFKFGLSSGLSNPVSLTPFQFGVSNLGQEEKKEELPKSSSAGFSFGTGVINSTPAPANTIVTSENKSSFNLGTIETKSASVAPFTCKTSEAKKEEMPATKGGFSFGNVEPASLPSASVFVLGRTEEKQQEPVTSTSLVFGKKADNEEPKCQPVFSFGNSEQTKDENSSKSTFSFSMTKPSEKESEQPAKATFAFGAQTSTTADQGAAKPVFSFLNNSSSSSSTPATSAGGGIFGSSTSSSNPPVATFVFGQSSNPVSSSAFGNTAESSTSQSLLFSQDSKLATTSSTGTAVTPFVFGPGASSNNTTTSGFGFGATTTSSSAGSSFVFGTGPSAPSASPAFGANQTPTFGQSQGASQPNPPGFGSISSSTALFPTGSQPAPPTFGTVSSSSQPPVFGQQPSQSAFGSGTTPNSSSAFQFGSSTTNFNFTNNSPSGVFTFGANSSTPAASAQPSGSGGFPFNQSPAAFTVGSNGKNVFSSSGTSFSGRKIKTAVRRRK

Assay [3] has as its target GANP (germinal center-associated nuclear protein) (human (endogenous in HCT116)) (UniProt O60318). The experiment in a line: co-IP; endogenous proteins from cellular extract of HCT116 cells; immunoprecipitation with anti-GANP antibody, mAb414, anti-Nup358 antibody or sheep IgG; blotted for GANP and mAb414.
In assay [4] the target is T2, His-NXF1(371-621) (UniProt Q9UBU9).
T2 sequence: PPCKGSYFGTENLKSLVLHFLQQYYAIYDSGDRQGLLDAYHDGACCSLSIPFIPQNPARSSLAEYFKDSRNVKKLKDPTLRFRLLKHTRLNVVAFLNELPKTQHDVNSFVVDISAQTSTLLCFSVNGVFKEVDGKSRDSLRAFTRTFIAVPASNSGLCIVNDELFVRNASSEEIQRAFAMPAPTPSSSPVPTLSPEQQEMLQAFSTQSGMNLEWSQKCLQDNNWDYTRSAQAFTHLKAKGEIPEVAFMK
Nature of the assay: pull-down; His-NXF1(371-621) prebound to Ni-NTA agarose, incubated with GST alone or GST-GANP(1-313) for 2 hr at 4°C; resin washed extensively; SDS-PAGE and Coomassie staining; both purified.

These are yes or no findings as the source states them, for the method shown. For part of these data: In cells and extracts the contact can be indirect. Some binding calls cover weakened binding; strength is not graded here. For part of these data: Tags and fused reporters may be left off the sequences shown.

“GANP (germinal center-associated nuclear protein) (from UniProt O60318 1-1980)”: the binding result in assay [1] and in assay [2] was “binds” in each case.

Take Nup62 (from UniProt P37198 1-522): the binding result in assay [3] is “no binding”.

For Nup153 (from UniProt P49790 1-1475), the binding entry in assay [3] is listed as “binds”.

Nup358 (from UniProt P49792 1-3224): the binding result in assay [3] is “binds”.

B1: GST-GANP(1-313) (domain or fragment, UniProt O60318 1-313)
chain: MNPTNPFSGQQPSAFSASSSNVGTLPSKPPFRFGQPSLFGQNSTLSGKSSGFSQVSSFPASSGVSHSSSVQTLGFTQTSSVGPFSGLEHTSTFVATSGPSSSSVLGNTGFSFKSPTSVGAFPSTSAFGQEAGEIVNSGFGKTEFSFKPLENAVFKPILGAESEPEKTQSQIASGFFTFSHPISSAPGGLAPFSFPQVTSSSATTSNFTFSKPVSSNNSLSAFTPALSNQNVEEEKRGPKSIFGSSNNSFSSFPVSSAVLGEPFQASKAGVRQGCEEAVSQVEPLPSLMKGLKRKEDQDRSPRRHGHEPAEDSD
As to B1, the binding result in assay [4] was “binds”.

Source of the values: paper PMC2869303.
